Source: PubChem BioAssay AID652106 (National Center for Advancing Translational Sciences (NCATS), 2013)
Out of some 370,000 compounds screened, about 500 (0.14%) were called active. Inconclusive means that the source gave no clear call. Such entries were picked first, then a sample of the others. Calls follow the shape of the dose curve; as a rule, active = well fitted activation curve with a large enough effect; inconclusive = small, poorly fitted or top-dose-only effect; inactive = no such curve, though single readings can be large or run the other way. Potencies of inconclusive entries are doubtful fits and often do not repeat.

Assay: qHTS of alpha-syn Inhibitors; also: nearly all actives have a fitted effect of over 65% in size; as to growth rescue (activation): % of control where 0% means no effect
Details: Yeast expressing alpha-synuclein, BacTiter-Glo, 24 h; Potency: growth rescue unless noted; growth rescue (activation): at 46.1 µM (top of the series) unless noted
Outline: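 Galactose-induced alpha-syn yeast (OD600=0.02, raffinose-pregrown) + pinned cpd, 24 hr, 30 deg C; growth by BacTiter-Glo luminescence. Growth restoration scores as activation.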
Potency is read from the fitted curve at half-maximal effect; tags tell the direction and shape of the fitted curve.

Potency, inconclusive:
O=C(c1cc(C2CCCCN2C(=O)CCCc2ccccc2)on1)N1CCOCC1 (stereo not given) 3.98 µM [activator, single point], Cc1ccc(-n2c(SCC(=O)N(C)C3CCS(=O)(=O)C3)nc3ccccc3c2=O)c(C)c1 (stereo not given) 25.1 µM [activator, single point], Cc1onc(-c2ccccc2)c1C(=O)NC(=S)NNC(=O)c1ccc(O)cc1O 31.6 µM [activator, single point], CCCCOCCCNC(=O)C[C@@H]1C[C@@]2(C(=O)OC)CCCCC=C2N(Cc2ccc(Cl)cc2Cl)C1=O 31.6 µM [activator, single point], O=C(Nc1ccc(F)cc1)C(c1cccc(F)c1)N1CCN(C(=O)c2ccco2)CC1 (stereo not given) 22.4 µM [activator, single point], COc1ccc(C)cc1N=Nc1ccc(O)c2ncccc12 5.62 µM [activator, single point], O=C(N/N=C/c1cccc([N+](=O)[O-])c1O)C(O)(c1ccccc1)c1ccccc1 35.5 µM [activator, single point], O=C(CCS(=O)(=O)c1ccc(Br)cc1)N1CCN(c2ccccc2Cl)CC1 10 µM [activator, partial curve], CC1C(=O)N(Cc2cn(Cc3ccco3)nn2)CCS(=O)(=O)N1Cc1ccc(-c2ccc(F)cc2Cl)cc1 (stereo not given) 25.1 µM [activator, single point], O=C(COc1ccc2c(c1)CCC2)N1CCN(c2cccc(C(F)(F)F)c2)CC1 12.6 µM [activator, single point], Cc1ccc(C(=O)/C=C/N(C)C)cn1 14.1 µM [activator, single point], CCOC(=O)c1sc(NNC(=O)c2ccc(F)cc2)nc1C 31.6 µM [activator, single point], COc1ccc(S(=O)(=O)N2CC(C)N(C(=O)N(C)C)C2C)cc1 (stereo not given) 35.5 µM [activator, single point], CC1=C(C(=O)OCc2ccccc2)C(c2ccc(Cl)cc2)NC(=O)N1C (stereo not given) 14.1 µM [activator, single point], COc1ccc(CC/C(=N\O)C2(O)CCCCC2)cc1 35.5 µM [activator, single point], O=C(NC1CC1)C1=C[C@@H](c2ccc(Br)cc2)C[C@@H](OCc2ccc(CO)cc2)O1 12.6 µM [activator, partial curve], COc1ccc(C(=O)NNC(=O)c2ccc3ccccc3n2)cc1 17.8 µM [activator, single point], Cc1ccc2cc3c(NC(=O)C4CCCO4)nn(CC(C)C)c3nc2c1 (stereo not given) 5.62 µM [activator, single point], Cc1ccc(C(=O)NC(=S)NCCN2CCOCC2)cc1 14.1 µM [activator, single point], CCOC(=O)c1nc(C)sc1-c1ccnn1S(=O)(=O)c1ccc(Cl)cc1Cl 35.5 µM [activator, single point], COC(=O)/C=C1/SC(=NC(=O)c2cccc([N+](=O)[O-])c2)NC1=O 17.8 µM [activator, single point], COc1ccc(Cl)cc1NC(=O)CN(C)C1CCS(=O)(=O)C1 (stereo not given) 28.2 µM [activator, single point], COc1ccc(S(=O)(=O)N2CCC(C(=O)N[C@@H](C)C(=O)N3CCCC3)CC2)cc1 31.6 µM [activator, single point], CCCOC(=O)C(C)n1cnc2scc(-c3ccc(C)cc3)c2c1=O (stereo not given) 31.6 µM [activator, single point], CCCCOCCCNC(=O)C[C@@H]1C[C@@]2(C(=O)OC)CC(C)(C)CC=C2N(Cc2cccc3ccccc23)C1=O 28.2 µM [activator, single point], COc1cccc(C2CC(c3cccs3)=NN2C(=O)c2ccco2)c1O (stereo not given) 12.6 µM [activator, partial curve], CCNC(=O)C1(C)CCN(C(=O)c2cccc(C(F)(F)F)c2)C1 (stereo not given) 31.6 µM [activator, single point], COc1cc(C=Nc2cccc(C)c2)c(O)c([N+](=O)[O-])c1 35.5 µM [activator, single point], O=C(Cc1ccc(F)cc1)Nc1nc(-c2ccc(F)cc2)cs1 22.4 µM [activator, single point], CC(C)(C)c1ccc(C(=O)NC(=S)NNC(=O)COc2ccccc2)cc1 5.62 µM [activator, single point], CCn1cc(C(=O)Nc2ncccc2O)c(=O)c2cc(F)c(N3CCN(C(=O)c4ccco4)CC3)cc21 35.5 µM [activator, single point], COc1cc2c(cc1NS(=O)(=O)N1CCCCC1)oc1ccccc12 20 µM [activator, single point], Cc1cccc(C(=O)NC(=S)NNC(=O)COc2ccc(Cl)cc2)c1 5.62 µM [activator, single point], Cn1cc([C@]2(O)C(=O)Nc3ccc(Br)cc32)c2ccccc21 0.501 µM [activator, partial curve, poor fit], CC(C)c1ccc(NC(=O)[C@H](Cc2c[nH]c3ccccc23)NC(=O)[C@@H]2Cc3ccccc3CN2)cc1 35.5 µM [activator, single point], CCN(CC)S(=O)(=O)c1ccc(OC)c(NC(=O)/C=C/c2ccco2)c1 20 µM [activator, single point], CC(C)n1c(O)c(N=NC(=O)CNC(=O)Cc2ccc(Cl)cc2)c2ccccc21 3.16 µM [activator, full curve, poor fit], Cc1cccc(C(=O)Nc2nnc(S(=O)(=O)N3CCOCC3)s2)c1 3.16 µM [activator, single point], CCOC(=O)C(C)Oc1cccc2c(=O)n(CC(=O)NCc3ccco3)ccc12 (stereo not given) 31.6 µM [activator, single point], Cc1cc(C(=O)N2CCc3ccccc32)ccc1[N+](=O)[O-] 35.5 µM [activator, single point]

Potency, active:
COc1cccc(C(Nc2ccccc2)c2ccc3ccc(C)nc3c2O)c1 (stereo not given) 17.8 µM, COc1cc2c(cc1OC)C(C)N(C(=O)c1cccc([N+](=O)[O-])c1)CC2 (stereo not given) 22.4 µM, O=C(/C=C/c1ccc(Br)cc1)NC(=S)NNC(=O)c1ccco1 22.4 µM, Nc1nc(Cl)nc2c1ncn2[C@@H]1O[C@H](COP(=O)(O)OP(=O)(O)OP(=O)(O)O)[C@@H](O)[C@H]1O 20.6 µM

Growth rescue (activation), inconclusive:
COc1ccc(C(=O)/C=C/N(C)C)cc1OC -51.8% [activator]

Growth rescue (activation), inactive:
Cc1nc([N+](=O)[O-])cn1CC(=O)c1ccc2c(c1)OCCCO2 -8.31%, CCOC(=O)c1c(-c2ccccc2)[nH]c2ccc(O)cc12 16.9%, CCn1c(CSc2n[nH]c(N)n2)nc2cc(C(=O)O)ccc21 1.14%, O=C(NCc1ccco1)c1cc2ccc(O)cc2oc1=O -61.8%, CCNc1ccc(/C=C/c2ccnc3ccccc23)cc1 1.88%, CN(c1ncnc(N)c1[N+](=O)[O-])C1CCCCC1 4.55%, Cc1ccc(/C(O)=C2\C(=O)C(=O)N(CC(C)O)C2c2cccc(F)c2)cc1 (stereo not given) -2.33%, CC1CC(C)CN(C(=O)c2ccc3c(c2NCCO)C(=O)c2ccccc2C3=O)C1 (stereo not given) -0.807%, O=C(c1ccccc1)c1ccc(C(=O)N2CCN(c3ccccc3O)CC2)cc1 8.65%, NS(=O)(=O)c1ccc(Sc2ccc3c(c2)CCC3)nc1 -0.515%, COc1ccccc1-c1nnc(SC/C(O)=C(\C#N)c2nc3ccccc3[nH]2)n1C1CCCCC1 2.2%, CCC(C)NC(=O)CNC(=S)N(Cc1ccccc1)Cc1cccnc1 (stereo not given) 8.53%, O=C(NCc1cccc(Cl)c1)c1cccc(C(F)(F)F)c1 -0.323%, COc1ccc(NC(=S)NC(C)Cc2cccs2)cc1 (stereo not given) 1.08%, COc1ccc(CNC(=O)O[C@H]2CN(C(=O)OC(C)C)N(C(=O)OC(C)C)[C@@H]3CN(S(=O)(=O)c4ccc(C)cc4)C[C@]23O)cc1OC 7.24%, Cc1c2n(c3ccccc13)CC/C2=N\O 3.78%, CC(C)(C)c1cnnn1-c1ccc(C(=O)CCl)cc1 -9.27%, CNc1nc(Nc2ccc(C)c(Cl)c2)c2cnn(C)c2n1 1.32%, NC(c1csc(Nc2nccc(C(F)(F)F)n2)n1)C1CCCCC1 (stereo not given) 2.86%, O=S1(=O)C=C(Sc2nc3cc(Cl)ccc3o2)c2ccccc21 -8.31%, O=C1C=C(c2ccc(CO)cc2)C[C@@H](c2ccc3c(c2)OCO3)C1 -0.744%, Cc1cccc(N2CCN(C(=O)c3ccc(N4CCCC4=O)cc3)CC2C)c1 (stereo not given) 1.29%, COc1ccc(Nc2nc(C)c3ccccc3n2)cc1 0.699%, Cc1ccccc1Nc1nnc(SCC(=O)Nc2ccccc2[N+](=O)[O-])s1 5.18%, CC1CC[C@@]2(OC1)O[C@H]1CC3[C@@H]4C[C@@H](O)[C@@]5(O)C[C@@H](O)[C@H](O)C[C@]5(C)[C@H]4CC[C@]3(C)[C@H]1[C@@H]2C (stereo not given in full) -8.45%
